The other results are listed elsewhere or left out. Antibody binding of pooled human sera (four to six donors per pool; dilution not stated) to peptides of the Trypanosoma cruzi antigen TSSA on microarrays. Quantile-normalised fluorescence in arbitrary units, mean of duplicate arrays; higher = more binding. No active / inactive call. The uninfected pools are read here as the healthy donors of the same country. The strongest signals lie near the top of the scale (about 60,000).
Assays:
Experiment in all cases: antibody binding signal (normalised fluorescence) (arbitrary fluorescence units); higher = stronger serum antibody binding to peptide
[1] = test system: pooled sera of chronic Chagas disease patients, Argentina
Protocol: (§1)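 Microarray of 15-residue peptides over residues 30-55 of Trypanosoma cruzi TSSAII, each with 1 to 10 substitutions at naturally variable positions, probed with one serum pool per country.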

[2] = test system: pooled sera of chronic Chagas disease patients, Bolivia
Protocol: as §1

[3] = test system: pooled sera of chronic Chagas disease patients, Brazil
Protocol: as §1

[4] = test system: pooled sera of chronic Chagas disease patients, Colombia
Protocol: as §1

[5] = test system: pooled sera of chronic Chagas disease patients, Mexico
Protocol: as §1

[6] = test system: pooled sera of chronic Chagas disease patients, USA
Protocol: as §1

[7] = test system: pooled sera of uninfected people, Argentina
Protocol: as §1

[8] = test system: pooled sera of uninfected people, Bolivia
Protocol: as §1

[9] = test system: pooled sera of uninfected people, Brazil
Protocol: as §1

[10] = test system: pooled sera of uninfected people, Colombia
Protocol: as §1

[11] = test system: pooled sera of uninfected people, Mexico
Protocol: as §1

[12] = test system: pooled sera of uninfected people, USA
Protocol: as §1

Sequence	antibody binding signal [1]	antibody binding signal [2]	antibody binding signal [3]	antibody binding signal [4]	antibody binding signal [5]	antibody binding signal [6]	antibody binding signal [7]	antibody binding signal [8]	antibody binding signal [9]	antibody binding signal [10]	antibody binding signal [11]	antibody binding signal [12]
SGTDKKPAAGGAPSQ	645	564	22600	14200	2120	1070	207	203	315	287	1850	302
GTEKKAAAGEAPSQP	5880	9940	39500	1080	1040	12500	102	1180	153	96.9	90.5	123
EKKAATGETPSQPGA	4510	2230	40400	359	435	11700	625	1390	249	957	391	1060
TDNKTATGEAPSPSG	12900	30300	17800	201	156	22100	166	288	274	182	89.3	109
DNKPAAGGAPSQSGA	223	676	4120	1510	325	475	216	400	552	225	384	171
GTDKKAATGETPSQS	2080	1410	16200	2560	439	10000	385	341	200	623	425	212
KDKKTAAGEAPSQPG	2480	6220	25600	251	186	3920	254	112	101	570	78.7	98.2
SGTDKKAAAGGTPSP	370	312	1200	12800	786	1880	166	143	1180	372	591	207
GKENKAATGGTPSQP	4690	2180	10800	8950	7360	14300	508	108	184	138	828	160
PSGKDKKAATGGTPS	2460	332	1950	4440	4050	3640	153	139	139	164	71.3	89.4
SGKEKKAAAGGAPSP	2900	309	2400	5860	5420	5050	155	87.5	117	112	80.2	161
SGTEKKPAAGETPSQ	2700	1200	8260	1270	1290	2380	79.2	934	718	793	261	444
ISTPPSGKDNKPAAG	36100	2090	23600	259	37700	13200	542	894	144	186	346	282
GKDKKTATGETPSQP	1400	389	19800	2180	2350	5590	207	114	135	104	92.1	88.6
PPSGKDKKPATGETP	31500	2710	14200	937	28800	16900	376	598	110	323	847	161
KKAATGGTPSPSGAS	358	285	351	558	264	424	234	113	302	405	83.3	221
TDKKTATGEAPSPSG	8930	22600	10700	183	567	19500	183	103	225	109	162	171
GTEKKTATGGAPSPS	1420	235	980	3760	1140	1440	322	629	115	117	145	133
STPPSGTENKTATGG	51600	47300	54000	454	6780	34600	3400	657	595	592	654	523
TDKKTATGGAPSPSG	1320	387	854	4160	728	927	295	246	147	134	313	159
DNKTAAGGTPSPSGA	1610	255	455	5300	378	1370	243	322	1410	427	1110	191
GKENKPATGEAPSQP	49700	31200	53100	6700	8210	45400	1500	889	354	214	400	178
GKDKKAATGETPSPP	1480	370	7320	1400	1270	7910	250	110	85	214	94.2	205
GTDKKPAAGETPSPS	2490	1610	6000	12100	2650	3450	147	307	144	273	952	1630
SGKENKAATGGTPSP	3870	2270	17100	6320	2120	18800	8230	2080	177	336	367	230

Sequence	antibody binding signal [1]	antibody binding signal [2]	antibody binding signal [3]	antibody binding signal [4]	antibody binding signal [5]	antibody binding signal [6]	antibody binding signal [7]	antibody binding signal [8]	antibody binding signal [9]	antibody binding signal [10]	antibody binding signal [11]	antibody binding signal [12]
TENKPATGETPSPSG	41900	35100	35000	301	597	28100	310	515	309	142	1850	2260
SSTPPSGKDKKTAAG	6540	628	624	548	31800	541	125	233	111	137	95.1	159
TENKPATGGAPSPSG	44100	20700	6150	313	1010	3700	346	1150	555	205	297	296
DNKPATGETPSPSGA	36700	31600	35300	265	213	30100	228	354	417	189	1840	637
SGKDNKAATGETPSQ	1940	1390	22300	595	495	11500	192	351	131	327	114	115
TDNKTATGEAPSQPG	16000	32100	40500	248	259	21600	159	288	343	122	107	116
GKDKKPATGGTPSQP	454	320	542	880	572	619	238	161	204	90.9	194	91.8
TPPSGTDKKPATGGA	31200	17700	43900	11000	37400	5720	1280	1310	308	340	3570	787
SGTEKKAAAGGAPSP	1130	253	1310	9680	2570	2330	251	566	242	189	143	152
TPPSGKEKKAATGET	10300	347	1240	903	9620	1510	448	668	109	554	109	164
STPPSGTDNKTATGE	29200	38200	44500	811	9880	26700	888	489	888	219	155	136
GTEKKAAAGGAPSPS	351	167	394	4530	757	868	165	373	209	138	107	112
ENKTATGETPSQPGA	2160	5680	36600	281	233	8460	138	948	350	233	272	241
SGKDNKTAAGGAPSP	463	195	802	5850	1050	2420	210	139	131	503	129	148
STPPSGKEKKTAAGG	13600	630	511	1780	29100	814	302	439	136	250	130	211
SGKDNKAAAGGAPSQ	678	284	1120	3020	1300	1120	207	248	137	561	71	109
SGKEKKTATGGTPSQ	2870	462	2160	3610	4070	4690	240	84.7	120	186	114	112
GKENKPAAGETPSQP	7370	3530	35100	9970	10800	14000	855	428	161	229	327	144
KKTATGETPSPSGAS	306	478	1270	209	388	3580	417	336	176	180	121	590
TDKKAATGETPSQPG	5210	2680	33600	273	217	10900	292	280	263	455	273	239
SGKENKTAAGGTPSP	3800	732	20000	10000	4540	20700	4660	946	335	402	683	237
TPPSGKEKKPATGGT	9700	411	547	619	32700	1140	364	471	366	255	115	220
KEKKTAAGGAPSPSG	164	202	179	2660	288	281	114	107	125	144	107	152
GKDNKAAAGGAPSQP	392	193	3210	1330	816	630	180	340	118	143	78.8	114
PPSGTEKKPAAGETP	38600	24600	38400	861	7410	7000	1160	691	1050	848	325	486

From the supplement of paper PMC10441789
